Results reported in PubChem BioAssay AID504832 (National Center for Advancing Translational Sciences (NCATS), 2011).
About 18,000 (5.8%) of roughly 310,000 compounds were called active. This list was built around the results that the source calls inconclusive (neither active nor inactive); the mix of calls is not that of the screen. The call rests on the fitted dose curve; in most records, active means well fitted inhibition curve with a large enough effect; inconclusive means small, poorly fitted or top-dose-only effect, or another doubt; inactive means no such curve, though single readings can be large or run the other way. No potency is given beside an inconclusive call; the fits are too rough.

Experiment: Primary qHTS for delayed death inhibitors of the malarial parasite plastid, 48 hour incubation
Details: P. falciparum luciferase growth in erythrocytes; series mostly up to 28.7 µM
In short: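 Parasite viability was followed by luminescence of a genomically integrated firefly luciferase. Cultures held 0.1% parasitemia at 2% hematocrit (final), incubated under 5% CO2 at 37 C.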
Potency means the concentration at half of the fitted maximal effect; tags describe the fitted curve by direction and shape.

Row | Compound | Potency
1 | Cc1ccc(S(=O)(=O)NCCn2nc(C)nc2C)cc1 | inactive
2 | Cc1cc(=O)oc2cc(OCc3ccc(S(=O)(=O)N4CCOCC4)cc3)ccc12 | inconclusive [inhibitor, single point]
3 | O=C1N(Cc2ccc3c(c2)OCO3)c2ccccc2C1(O)c1c[nH]c2ccccc12 (stereo not drawn) | inconclusive [inhibitor, single point]
4 | COc1ccccc1-c1cc(C(F)(F)F)nc(NCc2cccs2)n1 | inconclusive [inhibitor, partial curve]
5 | CNc1c([N+](=O)[O-])cnn1-c1ccccc1F | inactive
6 | Cc1nnc(SCC(=O)NCc2ccccc2)[nH]c1=O | inactive
7 | COc1cc(-c2nc(CN3CCN(CC(C)C)C(=O)[C@@H]3C)c(C)o2)ccc1F | active: 9.28 µM
8 | O=C(NCCOc1ccccc1-c1ccccc1)c1ccco1 | inconclusive [inhibitor, single point]
9 | COc1ccc(OC)c(CN2CCN(C(=O)Cc3ccccc3)CC2)c1 | inactive
10 | C#Cc1ccc(CN2CCC(Oc3ccc(C(=O)NCc4ccccn4)cc3)CC2)cc1 | inconclusive [inhibitor, partial curve, poor fit]
11 | CCC(C)Sc1cccc(-c2nc3cc(C)ccn3c2NCc2ccccc2)c1 (stereo not drawn) | inconclusive [inhibitor, single point]
12 | CCCCn1c(N)c(N(CCC(C)C)C(=O)CC2CCCCC2)c(=O)[nH]c1=O | inconclusive [inhibitor, single point]
13 | Cc1ccc(C)c(S(=O)(=O)N2CCCOC2CNC(=O)C(=O)NCc2ccncc2)c1 (stereo not drawn) | inconclusive [inhibitor, full curve, poor fit]
14 | COc1ccc(-c2nc(CN3CCCCC3c3cccnc3)c(C)o2)c(F)c1 (stereo not drawn) | active: 9.28 µM
15 | Cc1ccc2sc(N(CCCN(C)C)C(=O)c3nc4ccccc4s3)nc2c1C | inconclusive [inhibitor, single point]
16 | Cc1ccc(-n2ncc3c(NNC(=O)c4ccco4)ncnc32)cc1C | inconclusive [inhibitor, single point]
17 | COC(=O)C1(Cc2cc(-c3cccnc3)no2)CCN(C(=O)OC(C)(C)C)CC1 | inconclusive [inhibitor, full curve, poor fit]
18 | O=C(CN1CCCCC1)Nc1ccc(S(=O)(=O)N2CCCCCC2)cc1 | inconclusive [inhibitor, single point]
19 | CCOc1ccc(-c2nnc3ccc(SC(C)C)nn23)cc1 | inconclusive [inhibitor, partial curve]
20 | COc1cc(OC)c(OC)cc1/C=N/Nc1ncnc2c1[nH]c1ccccc12 | inconclusive [inhibitor, single point]
21 | COc1ccccc1C(=O)Nc1ccc(NC(=O)c2ccco2)c(C)c1 | inconclusive [inhibitor, single point]
22 | Cc1nc(NC(=O)/C=C/c2ccccc2)n[nH]1 | inconclusive [inhibitor, partial curve, poor fit]

Row | Compound | Potency
23 | O=C(c1ccccn1)N1N=C2/C(=C/c3ccccc3)CCCC2C1c1ccccc1 (stereo not drawn) | inconclusive [inhibitor, partial curve, poor fit]
24 | CCOc1ncccc1C(=O)Nc1cccc(S(=O)(=O)N2CCCCC2)c1 | inconclusive [inhibitor, partial curve]
25 | COC(=O)C1CN(C(=O)COc2cc(C)c(Cl)c(C)c2)c2ccccc2O1 (stereo not drawn) | inconclusive [inhibitor, full curve, poor fit]
26 | CCC(C)NC(=O)c1ccc(Cl)c(S(=O)(=O)Nc2ccccc2N2CCOCC2)c1 (stereo not drawn) | inconclusive [inhibitor, single point]
27 | Cc1ccc(-c2n[nH]c3c2C(c2ccccc2)N(c2ccc(C(=O)O)cc2)C3=O)cc1 (stereo not drawn) | inconclusive [inhibitor, single point]
28 | COc1cccc(COC(=O)C2CCN(S(=O)(=O)c3cccs3)CC2)c1OC | inconclusive [inhibitor, single point]
29 | NCC(=O)Nc1ccc(Cl)cc1C(=O)c1ccc[nH]1 | inconclusive [inhibitor, full curve]
30 | Cc1ccc(S(=O)(=O)N2CC3CCCC2C3)cc1 (stereo not drawn) | active: 1.65 µM
31 | COc1ccc([C@H]2CC(=O)C=C(c3ccc4ncccc4c3)C2)cc1 | inconclusive [inhibitor, single point]
32 | Cc1ccc(Nc2nc(N)nc(CC#N)n2)cc1 | inactive
33 | CN1CCN(CCNC(=O)c2ccc3nc(-c4ccc(F)cc4)c(-c4ccc(F)cc4)nc3c2)CC1 | active: 9.28 µM
34 | C#C[C@]1(O)CC[C@H]2[C@@H]3CCC4=CC(=O)CCC4=C3C=C[C@@]21CC | inconclusive [inhibitor, partial curve]
35 | Cc1nn(CC(=O)NCCc2ccc(Cl)cc2Cl)c(C)c1[N+](=O)[O-] | active: 11.7 µM
36 | Cc1cccc(-n2c(SCC(N)=O)nnc2-c2ccco2)c1 | inconclusive [inhibitor, partial curve, poor fit]
37 | CN(C(=O)CCc1nc2ccccc2c(=O)[nH]1)C1CCS(=O)(=O)C1 (stereo not drawn) | inactive
38 | CCOc1ccccc1N1CCN(S(=O)(=O)c2ccc3c4c(cccc24)C(=O)N3)CC1 | inconclusive [inhibitor, partial curve]
39 | CC(=O)c1c(C)[nH]c(C(=O)CSc2nc3ccccc3n2C)c1C | inactive
40 | Cc1cc(C)c(C#N)c(SCc2c(F)cccc2[N+](=O)[O-])n1 | inconclusive [inhibitor, single point]
41 | COc1ccc(C2=NN(c3ccccc3)C(=O)/C2=C\c2ccc(O)c(OC)c2)cc1 | active: 13.1 µM
42 | Cc1ccc(-c2csc(NC(=O)CSc3nnc4c(n3)[nH]c3ccccc34)n2)cc1 | inconclusive [inhibitor, single point]
43 | CCOc1ccc(C(=O)NCC(=O)Nc2ccc3c(c2)OCO3)cc1OCC | inconclusive [inhibitor, single point]
